Data on nine molecules can be found in patent publication US20250059278A1 (SICHUAN HUIYU PHARMACEUTICAL, published 2025).

Usually Kd stands for the concentration at which binding is half-saturated. A word on the koff: it is the first-order rate constant of dissociation. Usually kon stands for the second-order rate constant of association. A word on the EC50: it is the concentration at which the effect is half-maximal.

B1: CD3-MSLN bispecific antibody B28 (bispecific antibody, human IgG1, lambda)
heavy: EVQLVESGGGLVQPGGSLRLSCAASGFTFNTYAMNWVRQAPGKGLEWVARIRSKYNNYATYYADSVKDRFTISRDDSKSILYLQMNSLKTEDTAMYYCVRHHNFGNSYVSWFAYWGQGTLVTVSSASTKGPSVFPLAPSSKSTSGGTAALGCLVKDYFPEPVTVSWNSGALTSGVHTFPAVLQSSGLYSLSSVVTVPSSSLGTQTYICNVNHKPSNTKVDKKV[letters of human IgG1 Fc with changes omitted]GGGGSGGGGSEVQLVESGGGLVQAGESLRLSCAVSGNIGSIRHMGWHRQDPGKERELVATITTVGTTYYANFVKGRFTISRDNAKNTVYLQMNSLKPEDTGVYYCRATAHPTDYWGQGTQVTVSS
light: [letters of about 100 residues omitted][letters of about 100 residues omitted]
notes: [VH28]-[CH]-[L]-[3C6 VHH] with [VL-1]-[CL]
B2: CD3-MSLN bispecific antibody B20 (bispecific antibody, human IgG1, lambda)
heavy: EVQLVESGGGLVQPGGSLRLSCAASGFTFNTYAMNWVRQAPGKGLEWVARIRSKYNNYATYYADSVKDRFTISRDDSKSSLYLQMNSLKTEDTAVYYCVRHGNFGNSYVSWFQYWGQGTLVTVSSASTKGPSVFPLAPSSKSTSGGTAALGCLVKDYFPEPVTVSWNSGALTSGVHTFPAVLQSSGLYSLSSVVTVPSSSLGTQTYICNVNHKPSNTKVDKKV[letters of human IgG1 Fc with changes omitted]GGGGSGGGGSEVQLVESGGGLVQAGESLRLSCAVSGNIGSIRHMGWHRQDPGKERELVATITTVGTTYYANFVKGRFTISRDNAKNTVYLQMNSLKPEDTGVYYCRATAHPTDYWGQGTQVTVSS
light: [letters of about 100 residues omitted][letters of about 100 residues omitted]
notes: [VH20]-[CH]-[L]-[3C6 VHH] with [VL-1]-[CL]
B3: CD3-MSLN bispecific antibody B4 (bispecific antibody, human IgG1, lambda)
heavy: EVQLVESGGGLVQPGGSLRLSCAASGFTFNTYAMNWVRQAPGKGLEWVARIRSKYNNYATYYADSVKDRFTISRDDSKSILYLQMNNLKTEDTAVYYCVRHGNFQNSYVSWFQYWGQGTLVTVSSASTKGPSVFPLAPSSKSTSGGTAALGCLVKDYFPEPVTVSWNSGALTSGVHTFPAVLQSSGLYSLSSVVTVPSSSLGTQTYICNVNHKPSNTKVDKKV[letters of human IgG1 Fc with changes omitted]GGGGSGGGGSEVQLVESGGGLVQAGESLRLSCAVSGNIGSIRHMGWHRQDPGKERELVATITTVGTTYYANFVKGRFTISRDNAKNTVYLQMNSLKPEDTGVYYCRATAHPTDYWGQGTQVTVSS
light: [letters of about 100 residues omitted][letters of about 100 residues omitted]
notes: [VH4]-[CH]-[L]-[3C6 VHH] with [VL-1]-[CL]
B4: CD3-MSLN bispecific antibody B16 (bispecific antibody, human IgG1, lambda)
heavy: EVQLVESGGGLVQPGGSLRLSCAASGFTFNTYAMNWVRQAPGKGLEWVARIRSKYNNYATYYADSVKGRFTISRDDSKSILYLQMNSLKTEDTAVYYCVRHGNFGNSYVSWFQYWGQGTLVTVSSASTKGPSVFPLAPSSKSTSGGTAALGCLVKDYFPEPVTVSWNSGALTSGVHTFPAVLQSSGLYSLSSVVTVPSSSLGTQTYICNVNHKPSNTKVDKKV[letters of human IgG1 Fc with changes omitted]GGGGSGGGGSEVQLVESGGGLVQAGESLRLSCAVSGNIGSIRHMGWHRQDPGKERELVATITTVGTTYYANFVKGRFTISRDNAKNTVYLQMNSLKPEDTGVYYCRATAHPTDYWGQGTQVTVSS
light: [letters of about 100 residues omitted][letters of about 100 residues omitted]
notes: [VH16]-[CH]-[L]-[3C6 VHH] with [VL-1]-[CL]
B5: CD3-MSLN bispecific antibody B11 (bispecific antibody, human IgG1, lambda)
heavy: EVQLVESGGGLVQPGGSLRLSCAASGFTFNTYAMNWVRQAPGKGLEWVARIRSKYNNYATYYADSVKDRFTISRDDSKSSLYLQMNSLKTEDTAVYYCVRHSNFVNSYVSWFAYWGQGTLVTVSSASTKGPSVFPLAPSSKSTSGGTAALGCLVKDYFPEPVTVSWNSGALTSGVHTFPAVLQSSGLYSLSSVVTVPSSSLGTQTYICNVNHKPSNTKVDKKV[letters of human IgG1 Fc with changes omitted]GGGGSGGGGSEVQLVESGGGLVQAGESLRLSCAVSGNIGSIRHMGWHRQDPGKERELVATITTVGTTYYANFVKGRFTISRDNAKNTVYLQMNSLKPEDTGVYYCRATAHPTDYWGQGTQVTVSS
light: [letters of about 100 residues omitted][letters of about 100 residues omitted]
notes: [VH11]-[CH]-[L]-[3C6 VHH] with [VL-1]-[CL]
B6: CD3-MSLN bispecific antibody B21 (bispecific antibody, human IgG1, lambda)
heavy: EVQLVESGGGLVQPGGSLRLSCAASGFTFNTYAMNWVRQAPGKGLEWVARIRSKYNNYATYYADSVKGRFTISRDDSKSSLYLQMNSLKTEDTAMYYCVRHSNFGNTYVSWFAYWGQGTLVTVSSASTKGPSVFPLAPSSKSTSGGTAALGCLVKDYFPEPVTVSWNSGALTSGVHTFPAVLQSSGLYSLSSVVTVPSSSLGTQTYICNVNHKPSNTKVDKKV[letters of human IgG1 Fc with changes omitted]GGGGSGGGGSEVQLVESGGGLVQAGESLRLSCAVSGNIGSIRHMGWHRQDPGKERELVATITTVGTTYYANFVKGRFTISRDNAKNTVYLQMNSLKPEDTGVYYCRATAHPTDYWGQGTQVTVSS
light: [letters of about 100 residues omitted][letters of about 100 residues omitted]
notes: [VH21]-[CH]-[L]-[3C6 VHH] with [VL-1]-[CL]
B7: CD3-MSLN bispecific antibody B7 (bispecific antibody, human IgG1, lambda)
heavy: EVQLVESGGGLVQPGGSLRLSCAASGFTFNTYAMNWVRQAPGKGLEWVARIRSKYNNYATYYADSVKDRFTISRDDSKSSLYLQMNNLKTEDTAMYYCVRAGNFGNSYVSWFEYWGQGTLVTVSSASTKGPSVFPLAPSSKSTSGGTAALGCLVKDYFPEPVTVSWNSGALTSGVHTFPAVLQSSGLYSLSSVVTVPSSSLGTQTYICNVNHKPSNTKVDKKV[letters of human IgG1 Fc with changes omitted]GGGGSGGGGSEVQLVESGGGLVQAGESLRLSCAVSGNIGSIRHMGWHRQDPGKERELVATITTVGTTYYANFVKGRFTISRDNAKNTVYLQMNSLKPEDTGVYYCRATAHPTDYWGQGTQVTVSS
light: [letters of about 100 residues omitted][letters of about 100 residues omitted]
notes: [VH7]-[CH]-[L]-[3C6 VHH] with [VL-1]-[CL]
B8: CD3-MSLN bispecific antibody B17 (bispecific antibody, human IgG1, lambda)
heavy: EVQLVESGGGLVQPGGSLRLSCAASGFTFNTYAMNWVRQAPGKGLEWVARIRSKYNNYATYYADSVKDRFTISRDDSKSILYLQMNSLKTEDTAMYYCVRHGNFWNSYVSWFASWGQGTLVTVSSASTKGPSVFPLAPSSKSTSGGTAALGCLVKDYFPEPVTVSWNSGALTSGVHTFPAVLQSSGLYSLSSVVTVPSSSLGTQTYICNVNHKPSNTKVDKKV[letters of human IgG1 Fc with changes omitted]GGGGSGGGGSEVQLVESGGGLVQAGESLRLSCAVSGNIGSIRHMGWHRQDPGKERELVATITTVGTTYYANFVKGRFTISRDNAKNTVYLQMNSLKPEDTGVYYCRATAHPTDYWGQGTQVTVSS
light: [letters of about 100 residues omitted][letters of about 100 residues omitted]
notes: [VH17]-[CH]-[L]-[3C6 VHH] with [VL-1]-[CL]
B9: CD3-MSLN bispecific antibody B5 (bispecific antibody, human IgG1, lambda)
heavy: EVQLVESGGGLVQPGGSLRLSCAASGFTFNTYAMNWVRQAPGKGLEWVARIRSKYNNYATYYADSVKDRFTISRDDSKSILYLQMNSLKTEDTAVYYCVRHGNFKNSYVSWFAYWGQGTLVTVSSASTKGPSVFPLAPSSKSTSGGTAALGCLVKDYFPEPVTVSWNSGALTSGVHTFPAVLQSSGLYSLSSVVTVPSSSLGTQTYICNVNHKPSNTKVDKKV[letters of human IgG1 Fc with changes omitted]GGGGSGGGGSEVQLVESGGGLVQAGESLRLSCAVSGNIGSIRHMGWHRQDPGKERELVATITTVGTTYYANFVKGRFTISRDNAKNTVYLQMNSLKPEDTGVYYCRATAHPTDYWGQGTQVTVSS
light: [letters of about 100 residues omitted][letters of about 100 residues omitted]
notes: [VH5]-[CH]-[L]-[3C6 VHH] with [VL-1]-[CL]

One assay addresses T1, Human CD3εγ recombinant antigen (acrobiosystems, Cat. No. CDG-H52W5) (human, UniProt P07766 23-126; P09693 23-116).
T1 construct: Bought recombinant protein
Description: SPR chip (Carterra), antibody captured, antigen in flow.
For the molecule B1, the Kd is 3.7 nM, the koff was 0.002 s⁻¹ and the kon amounted to 540000 M⁻¹ s⁻¹.

Regarding B2, the Kd came to 1.3 nM, the koff turned out to be 0.0014 s⁻¹ and the kon was 1.1e+06 M⁻¹ s⁻¹.

On to B3, for which the Kd amounted to 1.5 nM, the koff was found to be 0.0022 s⁻¹ and the kon was 1.5e+06 M⁻¹ s⁻¹.

On to B4, for which the Kd stood at 1.4 nM, the koff was determined as 0.0013 s⁻¹ and the kon worked out at 910000 M⁻¹ s⁻¹.

For the molecule B5, the Kd came to 1.6 nM, the koff worked out at 0.0023 s⁻¹ and the kon was determined as 1.4e+06 M⁻¹ s⁻¹.

Regarding B6, the Kd amounted to 2.5 nM, the koff turned out to be 0.0022 s⁻¹ and the kon was 900000 M⁻¹ s⁻¹.

B7: the Kd turned out to be 2.2 nM, the koff was found to be 0.0011 s⁻¹ and the kon was determined as 510000 M⁻¹ s⁻¹.

As to B8, the Kd turned out to be 1.6 nM, the koff came out at 0.001 s⁻¹ and the kon was found to be 650000 M⁻¹ s⁻¹.

As to B9, the Kd worked out at 3.4 nM, the koff was determined as 0.0027 s⁻¹ and the kon was determined as 800000 M⁻¹ s⁻¹.

Another assay addresses T2, Monkey CD3 on cynomolgus HSC-F cells (cynomolgus monkey, UniProt Q95LI5 22-198; Q95LI7 23-181; Q95LI8 22-171).
T2 construct: whole, on cells; also called Monkey CD3-expressing cynomolgus HSC-F cells; cynomolgus monkey CD3-expressing HSC-F cells
T2 sequence (Q95LI5 22-198, chain 1 of 3): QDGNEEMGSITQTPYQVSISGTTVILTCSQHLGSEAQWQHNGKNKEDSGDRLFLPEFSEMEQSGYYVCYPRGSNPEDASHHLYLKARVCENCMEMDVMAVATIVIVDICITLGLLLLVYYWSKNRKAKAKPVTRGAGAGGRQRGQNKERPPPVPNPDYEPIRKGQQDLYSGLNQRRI
T2 sequence (Q95LI7 23-181, chain 2 of 3, further chain): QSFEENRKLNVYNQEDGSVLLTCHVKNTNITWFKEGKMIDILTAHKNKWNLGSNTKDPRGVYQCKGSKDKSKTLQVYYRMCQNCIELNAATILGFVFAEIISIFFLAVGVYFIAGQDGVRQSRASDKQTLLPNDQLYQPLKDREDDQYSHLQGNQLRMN
T2 sequence (Q95LI8 22-171, chain 3 of 3, further chain): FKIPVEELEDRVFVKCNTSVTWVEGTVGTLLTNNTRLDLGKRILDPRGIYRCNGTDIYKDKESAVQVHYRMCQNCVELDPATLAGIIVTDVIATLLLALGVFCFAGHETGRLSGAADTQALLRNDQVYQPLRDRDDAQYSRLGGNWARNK
Description: flow cytometry on HSC-F cells. For orientation: In flow cytometry, cells or beads pass a laser one at a time.
For the molecule B2, a half-maximal effect (EC50) was put at 10 nM.

In turn, B3 yielded an EC50 of 0.585 nM.

B4 gave an EC50 of 0.204 nM.

In the case of B5, the EC50 turned out to be 0.145 nM.

In turn, B6 yielded an EC50 of 1.25 nM.

B7 gave an EC50 of 0.693 nM.

Molecule B8 showed an EC50 of 0.147 nM.

As to B9, the EC50 is 0.23 nM.

Another assay has as its target T3, Human CD3 on Jurkat cells (human, UniProt P07766; P09693; P04234).
T3 construct: whole, on cells; also called Human CD3-expressing Jurkat cells; Jurkat (naturally expressing human CD3)
The experiment in a line: flow cytometry on Jurkat cells.
Consider B2, for which the EC50 is 54.2 nM.

As for B3, the response was half-maximal at 0.325 nM (EC50).

With B4, the EC50 came out at 0.433 nM.

In the case of B5, a half-maximal response (EC50) required 0.106 nM.

Consider B6, for which a half-maximal response (EC50) required 67.8 nM.

In the case of B7, the EC50 was determined as 1.36 nM.

B8 yielded an EC50 of 0.145 nM.

In turn, B9 yielded an EC50 of 0.181 nM.
